# Assay results published in PMC6451091.
# This is one part of the list. For part of these data: At the low end of the ranking the order means little. For part of these data: The protein was read in a cell extract, so binding may be indirect.
# Assays:
# Settings in all cases: 20 mM HEPES pH 7.9, 100 mM NaCl, 1 mM DTT, 0.2 mg/mL BSA, 0.02% Triton X-100, 2% milk, 0.4 mg/mL salmon testes DNA; 1 h; temperature not stated; high values mean tight binding; double strand, one strand shown; sequences stand for … in GCCTAGCAC…GTGCTAGGTCTTGATTCGCTTGACGCTGCTG
# [1] = target: PU.1 (IVT) (UniProt P17947); assay: protein-binding microarray (PBM)
# [2] = target: PU.1 (endogenous, THP-1 nuclear extract) (UniProt P17947); assay: nuclear extract protein-binding microarray (nextPBM)
# [3] = target: T1, FLI1 (endogenous, THP-1 nuclear extract) (UniProt Q01543); assay: as above
# T1 sequence: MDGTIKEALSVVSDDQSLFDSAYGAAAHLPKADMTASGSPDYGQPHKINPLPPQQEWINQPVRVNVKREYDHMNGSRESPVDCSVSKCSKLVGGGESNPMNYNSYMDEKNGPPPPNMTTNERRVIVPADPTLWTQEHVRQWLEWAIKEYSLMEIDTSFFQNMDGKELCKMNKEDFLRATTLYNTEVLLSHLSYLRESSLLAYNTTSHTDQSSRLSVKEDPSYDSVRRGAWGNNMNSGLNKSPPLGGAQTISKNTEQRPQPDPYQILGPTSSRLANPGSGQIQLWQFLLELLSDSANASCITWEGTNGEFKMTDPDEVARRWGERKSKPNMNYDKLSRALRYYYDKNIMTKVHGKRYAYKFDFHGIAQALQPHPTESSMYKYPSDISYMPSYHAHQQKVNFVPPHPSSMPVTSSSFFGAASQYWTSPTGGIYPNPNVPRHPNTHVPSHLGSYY
Sequence,binding signal [1] [z-score],binding signal [2] [z-score],binding signal [3] [z-score]
AGAAAGGGGAAGTGGGGACA,7.03,6.92,2.77
AGAAAGAGGAAGTAGATATT,8.76,7.51,4.9
AGAAAGAGGAAGTGACACTT,8.52,7.42,4.16
AAGAAGAGGAAGAGAGACCT,2.71,2.85,0.832
GGAAGGAGGAAGTCAGGGGC,4.69,5.38,2.65
CAAAAAGGGAAGTGGATGTT,6.49,6.6,3.25
ATTAAGGGGAAGTGATCAAA,5.73,5.7,2.45
AAAATGAGGAAGTGAACAAA,8.02,7.3,3.51
AAAAAGAGGAAGGGAGTAGA,4.77,5.71,2.18
GAAATGAGGAACTGGCTGGA,6.23,6.56,1.98
AGTATAAGGAAGTGTAGAAA,3.92,3.51,1.95
GATAAGAGGAAGTCCTCTGC,6.09,6.52,2.52
GTAAAGGGGAAGTGAGTAAA,6.16,6.67,3.06
GATAAGAGGAAGTCCTCGGT,5.92,6.42,2.98
AAAAAGGGGAAGTGTGCTGC,8.33,7.53,3.55
CAGAAAAGGAAGTGCAATAA,3.72,3.07,2.5
CAGTAAGGGAAGTGCCCTCG,2.4,2.66,1.32
ATGAAGAGGAAGTCAAGAGG,4.4,4.94,2.56
TGAATGGGGAAGTCTTCTAA,4.72,5.12,1.77
CAAAAACGGAAGTGGATGCT,6.22,6.66,4.67
AGAAAGAGGAAGTGATGTTA,8.46,7.27,4.36
